Assay results taken from the RNAGym collection of RNA variant scans (doi:10.1073/pnas.2313332121).
This sample is rich in variants without activity.

B1: TPR 5TU (parent)
chain: GGAUCUUCUCGAUCUAACAAAAAAGACAAAUCUGCCACAAAGCUUGAGAGCAUCUUCGGAUGCAGAGGCGGCAGCCUUCGGUGGCGCGAUAGCGCCAACGUUCUCAACUAUGACACGCAAAACGCGUGCUCCGUUGAAUGGAGUUUAUCAUG

Variants of: B1
Experiment: polymerase ribozyme fitness, log enrichment relative to wild type (log ratio); higher = more active; in vitro selection for triplet polymerase activity
Method in brief: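 Each subunit of a heterodimeric triplet polymerase ribozyme was mutagenized into a library by PCR, transcribed, and subjected to one round of in vitro selection, run in triplicate. Libraries were annealed with a biotinylated primer, the partner subunit and triplets, incubated frozen at −7 °C, and extended constructs were gel-excised, captured on streptavidin beads and recovered by RT-PCR. Input and output libraries were sequenced on Illumina, keeping genotypes with ≥10 input reads and ≥1 read per output. Fitness is log base 2 of genotype enrichment divided by wild-type enrichment, from inverse-variance-weighted replicate averages.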

With GGAUCUUCUCGAUCUAACAAAAAAGAAAAAUCUGCCACAAAUCUUGAGAGCAUCUUCGGAUGCAGAGGCGGCAGCCUUCGGUGGCGCAAUAGCGCCAACGUUCUCAACUAUGACACGCAAAACGCGUGCCCCGUUGAAUGGAGUUUAUCAUG [C27A G42U G88A U130C] as the variant, how does the “polymerase ribozyme fitness (log ratio)” value read?
The value was no more than -4.2.

With GGAUCUUCUCGAUCUAACAAAAAAGUCAAAUCUGCCACAAAGCUUGAGAGCAUCUUCGGAUGCAGAGGCGGCAGCCUUCGAUGGCGUGAUAGCGCCAACGUUCUCAACUAUGACACGCAAAACGCGUGCUCCGUUGAAUUGGGUUUAUCAUG [A26U G81A C87U G140U A142G] as the variant, how does the “polymerase ribozyme fitness (log ratio)” value read?
Its value is no more than -4.2.

With GGAUCUUCUCGAUCUAACAAAAAAGAAAAAUCUGCCAGAAAGUUUGAGAGCAUCUUCGGAUGCAGAGGCGGCAGCCUUCGGUGGUGCGAUAGCGCCAACGUUCUCAACUAUGACACGCAAAACGCGUGCUCCAUUGAAUGGAGCUUAUCAUG [C27A C38G C43U C85U G133A U144C] as the variant, how does the “polymerase ribozyme fitness (log ratio)” value read?
Its value is no more than -4.2.

With GGAUCUUCUCGAUCUAACAAAAAAGUCAAAUCUGCCACAAAGCUUGAGAGCAUCUUCGGAUGCAAUGGCGGCAGCCCUCGGUGGCGCGAUAGCGCUAACGUUCUCUUCUAUGACACGCAAAACGCGUGCUCUGUUGAAAGGACUUUAACAUG [A26U G65A A66U U77C C96U A106U A107U C132U U139A G143C U148A] as the variant, how does the “polymerase ribozyme fitness (log ratio)” value read?
Its value is no more than -4.2.

With GGAUCUUCUCGAUCUAACAAAAAAGAAAAAUCUGCCACACAGCUUGAGAGCAUGUUCGGAAGCAGAGGCGGCAGCCUUCGGUGGCGCGAUAGCGCCAACGUUCUCAACUAUGACACGCAAAACGCGUGCUCCGUUGAAUGGAGCUCAGCAUG [C27A A40C C54G U61A U144C U146C U148G] as the variant, how does the “polymerase ribozyme fitness (log ratio)” value read?
Its value is no more than -4.2.

Which “polymerase ribozyme fitness (log ratio)” value does the source give for GGAUCUUCUCGAUCUAACAAAAAAGUCAAAUCUGCCACAAAGCUUGAGAGCAUCUUCGGAUGCAGAGGCAGCAGCCUUCGGUGGCGCGAUAUCGCCAACGUUUUCAACUAUGACACGCAAAACGCGUGCUCCGUUGAAUGGAGUUUAUCAUG [A26U G70A G92U C103U] here?
The value was no more than -4.2.

For GGAUCUUCUCGAUCUAACAAAAAAGUCAAAUCUGCCACAAAGCUUGAGAGCAUCUUCGGAUGCAGAGGCGGCAGCCUUCGGUGGCGCGAUAGCACCAACGUACUCAACUAUGACACUCAAAACGCGUGCUCCGUUGAAUGGAGUUUAUCAUG [A26U G94A U102A G117U], which “polymerase ribozyme fitness (log ratio)” value is on record?
The value was no more than -4.2.

For GGAUCUUCUCGAUCUAACAAAAAAGAAAAAUCUGCCACAAAGCUUGAGACCAUCUUCGGAUGCAGAGGCGGCAGCCUUCGGUGGCGCGAUAGCGCCAACGUUCACAACUAUGACACGCAAAACGCGUGCUCCGUUGAGUAGAGUUUAUCAUG [C27A G50C U104A A138G G140A], which “polymerase ribozyme fitness (log ratio)” value is on record?
The value was no more than -4.2.

Which “polymerase ribozyme fitness (log ratio)” value does the source give for GGAUCUUCUCGAUCUAACAAAAAAGUCAAAUCUGCCACAAAGCUUGAGAGCAUCUUCGGAUGCAGAGGCGGCAGCCUUCGGUGGCGCGAUAGCGCCAACGGUCUCAACUAUCACACGCAAAACGCGUGCUCCGUUGAAUGGAGUUUAUCAUG [A26U U101G G112C] here?
Its value is no more than -4.2.

Which “polymerase ribozyme fitness (log ratio)” value does the source give for GGAUCUUCUCGAUCUAACAAAAAAGAACAAUCUGCCACAAAGCUUGAGAGCAUCUUGGGAUGCAGAGGCGGCAGCAUUCGGUGGCGCGAUCGCGCCAACGUUCUCAACUAUGACACGCAAAACGCGUGCUCCGUUGAAUGGAGUUUAUCAUG [C27A A28C C57G C76A A91C] here?
The value was no more than -4.2.

With GGAUCUUCUCGAUCUAACAAAAAAGAAAAAUCUGCCACAAAGCUUGAGAGCAUCUUCGGAUGCAGAGGCGGCAGCCUUCGGUGGAGCGAUAGCGCCAACGUUCUCAACUAUGACACGCAUAACGCGUGCUCCGUUGAAUGCAGUUUAUCAUG [C27A C85A A120U G141C] as the variant, how does the “polymerase ribozyme fitness (log ratio)” value read?
Its value is no more than -4.2.

Which “polymerase ribozyme fitness (log ratio)” value does the source give for GGAUCUUCUCGAUCUAACAAAAAAGUCAAAUCUGCCACAAAGCUUGAGAGCAUCUUCGGAAGCAGAGGCGGCAGCCUUCGGUGGAGCGAUAGCGCCAACGUUCUCAACUAUGACACGCAAAACGCGUGCUCCGUUGAAUGGAGUUUAUCAUG [A26U U61A C85A] here?
The value was no more than -4.2.

Which “polymerase ribozyme fitness (log ratio)” value does the source give for GGAUCUUCUCGAUCUAACAAAAAAGUCAAAUCUGCCACAAAGCUUGAGAGCAUCUUCGCAUGCAGAGGCGGCAGCCUUCGGUGGCGCUAUAGCGCCCACGUUCUCAAUUAUGACAGGCAAAACGCGUGCUCCGUUGAAUGGAGUUUAUCAUG [A26U G59C G88U A97C C108U C116G] here?
The value was no more than -4.2.

Which “polymerase ribozyme fitness (log ratio)” value does the source give for GGAUCUUCUCGAUCUAACAAAAAAGAAAAAUCUGCCACAAAGCUUGAGAGCAUCUUCGGAUGCAGAGGCGGCAGCCUUAGGUGACUCGAUAGCGCCAACGUUCUCAACUAUGACACGCAAAACGCGUGCUCCGUUGAAUGGAGUUUAUCAUG [C27A C79A G84A G86U] here?
Its value is no more than -4.2.

For GGAUCUUCUCGAUCUAACAAAAAAGAAAAAUCUGCCACAAAGCUUGAGAACAUCUUCGGAUGCAGAGACGGCAGCCUUCGGUGGCGCGAUAGCGCCAACGUUCUCAACUAUGACACGCAAAACGCGUGCUCCGUUGAAUGGCGUUUAUCAUG [C27A G50A G68A A142C], which “polymerase ribozyme fitness (log ratio)” value is on record?
Its value is no more than -4.2.

With GGAUCUUCUCGAUCUAACAAAAAAGAAAAAUCUGCCACAAAGCUUGAGAACAUCUUGGUAUGCACAGGCGGCAGCCUUCGGUGGCGCGAUAGCGCCAACGUUCUCAACUAUGACACGCAAAACGCGUGCUCCGUUGAAUGGAGUUUAUCAUG [C27A G50A C57G G59U G65C] as the variant, how does the “polymerase ribozyme fitness (log ratio)” value read?
Its value is no more than -4.2.

Which “polymerase ribozyme fitness (log ratio)” value does the source give for GGAUCUUCUCGAUCUAACAAAAAAGAAAAAUCUGCCACAAAGCUUGAGAGCAUCUUCGGAUGCAGAGGCGGCAGCCUUCGGUGGCGUGAUAGCGCCAACGUUCUCAACUAUGACACGCAAAACGCGUGCUCCGUUCAAUGGAGUUUAUCAUG [C27A C87U G136C] here?
The value was no more than -4.2.

With GGAUCUUCUCGAUCUAACAAAAAAGUCAAAUCUGCCACAAAGCUUGAGAGCAUCUUCGGAUGCAGAGGCGGCAGCCUUCGGUGGCGCGAUAGCGCCAACGUUCCCAACUAUGACACGCAAAACGCCUGCUCCGUUGAAUGGAGUUAAUCAUG [A26U U104C G126C U146A] as the variant, how does the “polymerase ribozyme fitness (log ratio)” value read?
The value was -2.67.

For GGAUCUUCUCGAUCUAACAAAAAAGAAAAAUCUGCCUCAAAGCUUGAGAGCAUCUUCGGAUGCAGAGGCGGCAGCCUUCGGUGGGGGGAUAGCGCGAACGUUCUCAACUAUGACACGCAAAACGCGUGCUCCGUUGAAUGGAGUUUAUCAUG [C27A A37U C85G C87G C96G], which “polymerase ribozyme fitness (log ratio)” value is on record?
The value was no more than -4.2.
